{"source": "ChEMBL document CHEMBL4888484", "about": "“Replenishing the malaria drug discovery pipeline: Screening and hit evaluation of the MMV Hit Generation Library 1 (HGL1) against asexual blood stage Plasmodium falciparum ,using a nano luciferase reporter read-out” (2022)", "note": "Hit rate of the full screen: of about 150,000 compounds, about 540 (0.36%) showed an effect of 50% or more. The list shows a part of the results.", "data": [{"tested_on": "Plasmodium falciparum", "assay": "Primary screen in NF54 nanoGlo assay, in single point, at 2uM, 72h; a lower Z score goes with more inhibition", "assay_type": "functional, Erythrocyte", "settings": "timepoint 72 hour", "units": {"% Inhibition": "%"}, "values": [{"smiles": "COc1cccc(-c2nnc(NC(=O)CCN(CCc3ccc(OC)c(OC)c3)C(=O)CCC3CCCC3)s2)c1", "% Inhibition": -2, "Z score": 0.29}, {"smiles": "Cn1cccc1-c1nnc2n1CCOC2", "% Inhibition": -7, "Z score": 1.37}, {"smiles": "Cc1cc(Cl)ccc1C(=O)N1CCC[C@H](Cn2cc(C(C)(C)N)nn2)C1", "% Inhibition": 1, "Z score": -0.24}, {"smiles": "COc1ccccc1C(=O)Nc1ccc2c(c1)C(=O)N1CCC[C@H]1C(=O)N2", "% Inhibition": -5, "Z score": 0.74}, {"smiles": "CC(C)S(=O)(=O)NC(=O)c1csc(Cl)c1", "% Inhibition": -7, "Z score": 0.83}, {"smiles": "Cc1nc(C(C)C)ncc1C(=O)N[C@@H](C)c1nncn1C(C)C", "% Inhibition": -10, "Z score": 1.32}, {"smiles": "Cn1c(=O)[nH]cc(C(=O)NCCc2ccccc2)c1=O", "% Inhibition": 2, "Z score": -0.46}, {"smiles": "Cc1cccc2[nH]c(COCC(=O)N3C[C@@H]4NCCO[C@H]4C3)nc12", "% Inhibition": -4, "Z score": 0.74}, {"smiles": "COc1ccccc1CC(C)(C)NC(=O)C[C@H]1CCS(=O)(=O)C1", "% Inhibition": -5, "Z score": 1}, {"smiles": "Cn1cc(-c2ccc(C(=O)N3CCC[C@H]3C(F)(F)F)o2)cn1", "% Inhibition": -4, "Z score": 0.81}, {"smiles": "CC(=O)Nc1ccc(Oc2cc(NC(=O)c3nc4nc(-c5ccccc5)cc(C(F)(F)F)n4n3)cc(Oc3ccc(F)cc3)c2)cc1", "% Inhibition": -55, "Z score": 6.5}, {"smiles": "COCCN1C(=O)CN(C2CCC(C)CC2)C(=O)[C@@H]1c1cccs1", "note": "(some centres undefined)", "% Inhibition": 25, "Z score": -2.82}, {"smiles": "Cc1n[nH]c(C)c1CCC(=O)N1CC[C@H](n2cnc3ccccc32)C1", "% Inhibition": -5, "Z score": 0.63}, {"smiles": "N#Cc1ccc(Cn2cnc3c2c(=O)n(C2CC2)c(=O)n3-c2ccccc2Cl)cc1", "% Inhibition": -3, "Z score": 0.31}, {"smiles": "CC[C@H](NCc1cccnc1-n1ccnc1)c1ccccc1O", "% Inhibition": -5, "Z score": 0.74}, {"smiles": "COC[C@@]1(C)CCN(C(=O)c2c[nH]c3cccc(F)c23)C1", "% Inhibition": 5, "Z score": -0.66}, {"smiles": "Cc1cc(C)nc(N[C@H]2CN(S(C)(=O)=O)C[C@@H]2C2CC2)n1", "% Inhibition": -12, "Z score": 1.59}, {"smiles": "CC(=O)N1C[C@@H](O)C[C@@H]1C(=O)NCc1occc1C", "% Inhibition": 1, "Z score": -0.08}, {"smiles": "COc1ccc(F)cc1C(Nc1ccnc(C(=O)O)c1)[C@H]1C[C@@H](O)C1", "note": "(some centres undefined)", "% Inhibition": 4, "Z score": -0.59}, {"smiles": "COc1cc2c(cc1OC)[C@H](CNC(=O)c1ccco1)N(Cc1ccccc1C)CC2", "% Inhibition": -18, "Z score": 1.55}, {"smiles": "Cc1cc2[nH]c(CN3CCCN(CC4CC4)[C@H](C(C)C)C3)cc(=O)n2n1", "% Inhibition": -11, "Z score": 1.59}, {"smiles": "Cc1ccsc1[C@H]1CCN(Cc2ccncc2F)C[C@@H]1O", "% Inhibition": 0, "Z score": 0.05}, {"smiles": "Cc1cccc(NC(=O)CN2CC(=O)NC[C@H]2c2ccccc2)c1C", "% Inhibition": -6, "Z score": 0.77}, {"smiles": "CC(C)Cc1ccc([C@@]2(C)NC(=O)N(Cc3ncnn3C)C2=O)cc1", "% Inhibition": 5, "Z score": -0.82}, {"smiles": "O[C@@H](Cn1cnc2ccccc21)Cn1c2ccc(Br)cc2c2cc(Br)ccc21", "% Inhibition": -9, "Z score": 1.25}, {"smiles": "O=C1C[C@H](c2nc(-c3ccncc3)no2)CN1c1ccc(Cl)cc1", "% Inhibition": 7, "Z score": -1.28}, {"smiles": "CC(=O)N1CCC(CCC(=O)Nc2n[nH]c3cccc(F)c23)CC1", "% Inhibition": 2, "Z score": -0.27}, {"smiles": "Cc1cc(COc2ccc([C@@H]3CCC(=O)N3)cc2)no1", "% Inhibition": -5, "Z score": 0.75}, {"smiles": "Cc1cnc(C2CCC2)n1CCNS(=O)(=O)Cc1ccccc1", "% Inhibition": -16, "Z score": 1.84}, {"smiles": "COc1nn(C)cc1C(=O)Nc1nc(-c2ccccn2)cs1", "% Inhibition": 4, "Z score": -0.45}, {"smiles": "CC(C)(C)OC(=O)NCCCNCc1ccccc1OCC1CC1", "% Inhibition": -20, "Z score": 2.03}, {"smiles": "COc1ccc(OCC2CCN(C(=O)CC(=O)Nc3cccc(C)c3)CC2)cc1", "% Inhibition": -2, "Z score": 0.35}, {"smiles": "COCCN(Cc1ccc(C)o1)C(=O)C1CC2CCC1O2", "note": "(centres undefined)", "% Inhibition": 0, "Z score": 0}, {"smiles": "CN(Cc1nc2ccccc2o1)c1cc([C@H]2C[C@@H](O)C2)nc(N)n1", "% Inhibition": -6, "Z score": 0.69}, {"smiles": "O=S(=O)(c1cc(Cl)ccc1Cl)N1CC(C(F)F)C1", "% Inhibition": -8, "Z score": 0.93}, {"smiles": "Cc1noc2ncc(C(=O)NCc3cccnc3OCc3ccccc3)cc12", "% Inhibition": -5, "Z score": 0.93}, {"smiles": "COc1cccc(C)c1C(=O)N1[C@@H]2CC[C@H]1C[C@@H](O)C2", "% Inhibition": 8, "Z score": -1.07}, {"smiles": "Cc1ccc(CCNC(=O)c2ccc3c(c2)NC(=O)[C@@H]2CCCCN32)cc1", "% Inhibition": -8, "Z score": 1.14}, {"smiles": "CCCCCNC(=O)c1c(C(F)(F)F)nn(C2CCN(C(C)C)CC2)c1C", "% Inhibition": -3, "Z score": 0.65}, {"smiles": "Cc1cc(-n2cc(C3CC3)nn2)n(C)n1", "% Inhibition": 0, "Z score": -0.06}, {"smiles": "Cc1ccc(N(Cc2ccco2)C(=O)[C@H]2CCCN(C(=O)c3ccc(F)cc3)C2)cc1", "% Inhibition": -3, "Z score": 0.58}, {"smiles": "COc1ccc([C@H]2CCCCN(C(=O)Cn3cncn3)C2)cc1", "% Inhibition": 9, "Z score": -1.17}, {"smiles": "CCOc1ccc(N2C[C@@H](c3nnc(N)o3)CC2=O)cc1", "% Inhibition": -14, "Z score": 2.43}, {"smiles": "Cc1noc(CN2CC3CCCC(C2)N3C(=O)OC(C)(C)C)n1", "% Inhibition": -3, "Z score": 0.31}, {"smiles": "CCN(CC(=O)N1CCc2sccc2C1COc1ccc(C(C)C)cc1)CC(O)c1ccccc1", "note": "(centres undefined)", "% Inhibition": 2, "Z score": -0.22}, {"smiles": "NC(=O)[C@H]1CCCN1C(=O)CC1(N2Cc3ccccc3C2=O)CCCCC1", "% Inhibition": 8, "Z score": -0.98}, {"smiles": "CCN1CCN(C(=O)C[C@H](c2ccc(C(C)(C)C)cc2)c2c[nH]c3ccc(OC)cc23)CC1", "% Inhibition": -7, "Z score": 0.84}, {"smiles": "CC(NCC1CCCn2ccnc21)c1nc(C2CC2)no1", "note": "(centres undefined)", "% Inhibition": 0, "Z score": 0.05}, {"smiles": "Cc1cc(F)ccc1C(=O)Nc1ccc(C(=O)NCc2ccncc2)cc1", "% Inhibition": -12, "Z score": 2.14}, {"smiles": "C[C@](O)(CC(=O)N1CC(Nc2ccc(F)cc2)C1)C1CC1", "% Inhibition": -4, "Z score": 0.76}, {"smiles": "c1csc(-c2nc(CN3CCOCc4ccccc43)cs2)c1", "% Inhibition": -1, "Z score": 0.11}, {"smiles": "Cc1nn(C)c(=O)n1C1CCN(S(=O)(=O)c2cccc3cccnc23)CC1", "% Inhibition": -11, "Z score": 1.63}, {"smiles": "Cc1ccc(CNCCn2cnc(C)c2C)o1", "% Inhibition": -5, "Z score": 0.84}, {"smiles": "COc1ccc2cc1Oc1cccc(c1)CO[C@H]1CN(C(=O)CCc3csc(N)n3)C[C@@H]1NC(=O)CN(C)C2", "% Inhibition": 4, "Z score": -0.77}, {"smiles": "Cc1n[nH]c(CC(=O)N2CCC3(CCC(=O)N(CCc4ccccn4)C3)CC2)n1", "% Inhibition": 1, "Z score": -0.17}, {"smiles": "CCC[C@H]1CN(C(=O)COC)C[C@@H]1Nc1nc(C)c(C)cc1C(N)=O", "% Inhibition": -5, "Z score": 0.57}, {"smiles": "Cc1ccc(C)c([C@@H]2CC(c3ccccc3Cl)=NN2C(=O)CN2CCCCC2)c1", "% Inhibition": 5, "Z score": -0.75}, {"smiles": "CC(C)n1nccc1-c1ncccc1C(=O)N1C[C@@H]2CC[C@H]1C2", "% Inhibition": -16, "Z score": 2.02}, {"smiles": "C[C@H](Oc1ccc(-c2ccccc2)cc1)C(=O)Nc1c(-c2ccc(F)cc2)ncn1C", "% Inhibition": -9, "Z score": 0.94}, {"smiles": "Cc1nnc(CN(C)CCC(=O)NCc2cccs2)o1", "% Inhibition": -3, "Z score": 0.42}, {"smiles": "Cc1cc(C)n(-c2nc(CC(=O)N3CCCCCC3)cs2)n1", "% Inhibition": 18, "Z score": -2.13}, {"smiles": "COc1ccc([C@H]2C[C@@H](O)[C@@H](O)[C@@H]2NCc2cn(C)c3ccccc23)cc1", "% Inhibition": -8, "Z score": 1.22}, {"smiles": "CC[C@H](NC1CCN(c2ccc(C)cc2)CC1)c1cccnc1", "% Inhibition": -6, "Z score": 0.89}, {"smiles": "O=C(NCc1cc(F)cc(F)c1)c1cnn2c(-c3ccc4c(c3)OCO4)ccnc12", "% Inhibition": 28, "Z score": -3.22}, {"smiles": "CCNc1ncc(C(=O)NCCNC(=O)OC)cc1Cl", "% Inhibition": -15, "Z score": 1.74}, {"smiles": "COc1cccc(N2CCN(C(=O)[C@H]3CCCN(c4nc5ncccc5n5cccc45)C3)CC2)c1", "% Inhibition": -9, "Z score": 1.03}, {"smiles": "CN(Cc1nc(-c2ccccn2)no1)Cc1c(F)cccc1Cl", "% Inhibition": -16, "Z score": 1.99}, {"smiles": "O=C(Nc1ncc(Cc2ccccc2)s1)[C@@H]1COCCN1C1CCCC1", "% Inhibition": -3, "Z score": 0.39}, {"smiles": "COc1ccc(C(=O)c2oc3ccccc3c2NC(=O)CCc2ccccc2)cc1Cl", "% Inhibition": -4, "Z score": 0.44}, {"smiles": "CCN1C[C@H](CN(C)CC(=O)NCc2ccco2)Oc2ccccc21", "% Inhibition": -13, "Z score": 1.91}, {"smiles": "CCCOc1ccc(CNC(=O)N2CC[C@H](c3cnn(C)c3)C2)c(C)c1", "% Inhibition": 2, "Z score": -0.35}, {"smiles": "O=C(NCc1cccnc1)N[C@H]1COc2c1ccc(Cl)c2Cl", "% Inhibition": 33, "Z score": -3.69}, {"smiles": "CCn1cc(-c2nncn2-c2cccc(C(C)=O)c2)cn1", "% Inhibition": 10, "Z score": -1.84}, {"smiles": "CCn1cnnc1[C@H]1CCCN(c2ccc(C(F)(F)F)c(C#N)c2)C1", "% Inhibition": -16, "Z score": 1.67}, {"smiles": "Cn1cc(C2=CCCN(C(=O)c3nnc(C(C)(C)C)o3)C2)cn1", "% Inhibition": -11, "Z score": 2.13}, {"smiles": "O=C(N[C@@H](Cc1ccccc1)C(=O)O)c1occc1Br", "% Inhibition": -6, "Z score": 0.85}, {"smiles": "COCCOc1ccc(Br)cc1C(N)=O", "% Inhibition": -6, "Z score": 0.65}, {"smiles": "COc1nsc(CNC[C@H]2CN(C)CCO2)c1Cl", "% Inhibition": 22, "Z score": -2.79}, {"smiles": "CC(NC(=O)C1CN(C)CCO1)c1cnn(Cc2ccccc2)c1", "note": "(centres undefined)", "% Inhibition": 30, "Z score": -3.99}, {"smiles": "CN1C[C@H](NC(=O)c2cc3ccc(Cl)cc3n2C)C[C@H]1CO", "% Inhibition": -5, "Z score": 0.67}, {"smiles": "O=C(c1ccco1)N1Cc2ccccc2O[C@H](c2ccccc2)C1", "% Inhibition": 8, "Z score": -0.73}, {"smiles": "CC1=C[C@@H](CNC(=O)Cn2cnnn2)[C@H](C(C)C)C[C@H]1Cc1nc2ccccc2[nH]1", "% Inhibition": -8, "Z score": 1.24}]}]}
